PubChem BioAssay AID686979 (National Center for Advancing Translational Sciences (NCATS), 2013)
Out of some 420,000 compounds screened, about 50,000 (12%) were called active. The shares of active, inactive and inconclusive entries below differ from those in the screen. The call rests on the fitted dose curve; in most records, active means well fitted inhibition curve with a large enough effect; inconclusive means small, poorly fitted or top-dose-only effect; inactive means flat fitted curve, though single readings scatter. Potencies of inconclusive entries are left out as doubtful fits.

assay: qHTS for Inhibitors of human tyrosyl-DNA phosphodiesterase 1 (TDP1): qHTS in cells in presence of CPT; conditions: chicken DT40 Tdp1-/-;hTDP1 cells + 20 nM CPT, ATP luminescence, 48 h; activity change, negative = growth inhibition: at 46.2 µM (top of the series) unless noted; further: nearly all actives have a fitted effect of over 55% in size
Summary of the method: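 Cell growth measured by CellTiter-Glo luminescence after a minimum 48 h, 37 C compound exposure with 20 nM CPT in Tdp1-knockout DT40 cells stably expressing hTDP1, seeded 400/well; qHTS titration format.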
On the % scale 0 is the no-effect control and ±100 the full control effect; potency means the concentration at half of the fitted maximal effect; tags describe the fitted curve by direction and shape.

Compound	Potency	activity change, negative = growth inhibition
COc1ccc(-c2ccc(CN3C(C)C(=O)N(Cc4cn(Cc5ccco5)nn4)CCS3(=O)=O)cc2)cc1 (stereo not given)	active: 20.6 µM	–
CC(C)c1ccc(C2c3c(-c4ccccc4O)n[nH]c3C(=O)N2Cc2ccncc2)cc1 (stereo not given)	inconclusive [inhibitor, single point]	–
C/C(=N\NC(=O)CNC(=O)c1ccncc1)c1ccc(C)cc1	–	inactive: 8.76%
COc1ccc(N(CC(=O)NCc2ccc(Cl)cc2)S(=O)(=O)c2ccccc2[N+](=O)[O-])c(OC)c1	inconclusive [inhibitor, single point]	–
COc1ccc(C(=O)Nc2nnc(C)s2)cc1	–	inactive: 6.53%
CC(=O)Nc1ccc(S(=O)(=O)NCc2cc(=O)n(C)c(=O)n2C)cc1	–	inactive: 3.89%
N#Cc1nc(-c2ccccc2)oc1N1CCN(C(=O)c2ccco2)CC1	inconclusive [inhibitor, single point]	–
COc1cc(OC)cc(C(=O)NNC(=O)c2ccc3ccccc3n2)c1	active: 5.17 µM	–
CC(C)Cn1c(=O)c2ccccc2n2c(CCC(=O)N3CCN(c4ccccc4)CC3)nnc12	inconclusive [inhibitor, single point]	–
CCN(CC)CCNC(=O)c1cc2c(=O)n(C)c3ccccc3c2n1C	inconclusive [inhibitor, single point]	–
COc1cc(OC)cc(-c2c(-c3cccs3)c3cc(-c4ccc(OC)c(F)c4)ccc3n2C)c1	inconclusive [inhibitor, single point]	–
O=C(c1ccc(CS(=O)Cc2ccc(Cl)cc2)o1)N1CCN(c2ccccc2F)CC1 (stereo not given)	inconclusive [inhibitor, single point]	–
COCOCCn1cc(CN2CCS(=O)(=O)N(Cc3ccc(-c4ccc(OC)cc4)cc3)C(CC(C)C)C2=O)nn1 (stereo not given)	active: 16.4 µM	–
O=C(CC1NCCc2ccccc21)Nc1ccc(Cl)cc1 (stereo not given)	inconclusive [inhibitor, single point]	–
CSc1cccc(NC(=S)N(C(C)C)C(C)c2ccccn2)c1 (stereo not given)	inconclusive [inhibitor, single point]	–
Cc1nc(Cl)cc(N/N=C/c2ccc(O)cc2)n1	–	inactive: 3.44%
Cc1ccccc1OCCn1c(C)nc2ccccc21	inconclusive [inhibitor, single point]	–
Cc1ccccc1-c1nnc(-c2ccccc2)o1	inconclusive [inhibitor, partial curve, poor fit]	–
CCNc1ncc2nc(-c3ccccc3)c(=O)n(CCC#N)c2n1	–	inactive: -3.09%
CCOc1cccc(OCCOCCn2cnc3ccccc3c2=O)c1	inconclusive [inhibitor, single point]	–
Cc1ccc(Cl)cc1NC(c1ccc(F)cc1)c1nnc(-c2ccccc2)o1 (stereo not given)	inconclusive [inhibitor, single point]	–
O=C(CSc1nc2ccccc2s1)Nc1ccc(N2CCOCC2)c(Cl)c1	active: 16.4 µM	–
CCCN=C1N(C)C[C@@H]2[C@@H]3C(=O)N(C)C(=O)[C@@H]3[C@](C)(C(=O)OC)N12	–	inactive: 7.74%
Cc1ccn2c(Nc3ccc4c(c3)OCCO4)c(-c3cccs3)nc2c1	inconclusive [inhibitor, partial curve]	–

Compound	Potency	activity change, negative = growth inhibition
Cc1cccc(C)c1NC(=O)CN(C)C(=O)CCc1nc2sc3c(c2c(=O)[nH]1)CCCC3	inconclusive [inhibitor, single point]	–
Cc1ccc2onc(CNC(=O)Nc3cc(F)ccc3F)c2c1	inconclusive [inhibitor, single point]	–
Cc1ccc2c(c1)Cc1c(nc(-c3ccc(Cl)cc3)nc1SCC(=O)N1CCCCC1)O2	–	inactive: -4.8%
Cc1ccnc(NCn2nnc3ccccc32)c1	active: 16.4 µM	–
O=c1c2cn[nH]c2[nH]c(=S)n1-c1cccc(Cl)c1	–	inconclusive: -30.7% [inhibitor]
Cc1cccc(C)c1NC(=O)C1(C)CN(S(C)(=O)=O)CC(=O)N1C1CC1 (stereo not given)	–	inactive: 16%
Cn1c(C(=O)NCc2ccccn2)cc2c(=O)n(C)c3ccccc3c21	active: 0.58 µM	–
CC(C)C12CN3CC(C(C)C)(CN(C1)C3c1ccccc1O)C2=O (stereo not given)	inconclusive [inhibitor, single point]	–
COc1ccc(Cc2nc3ccc(C(=O)NCCc4ccccn4)cc3o2)cc1OC	–	inactive: -19.8%
O=C(CSc1nnc(-c2ccc(Cl)cc2)o1)Nc1ccc(F)cc1	–	inactive: -11%
CC[C@@]12C(=O)N(c3cccc(Cl)c3)C(=O)N1[C@H](c1cccc(C)c1)[C@@H]1C(=O)N(Cc3ccccc3)C(=O)[C@@H]12	inconclusive [inhibitor, partial curve]	–
Cc1ccccc1-c1nc(CS(=O)(=O)CC(=O)NCC(C)c2ccccc2)c(C)o1 (stereo not given)	inconclusive [inhibitor, single point]	–
NC(=O)C1CCN(C(=O)C2CCN(C(=O)Nc3ccccc3)CC2)CC1	–	inactive: 9.32%
CCc1ccccc1NC(=O)Cn1c(=O)n(Cc2ccc3c(c2)OCO3)c(=O)c2ccc(C(=O)NC3CCCCC3)cc21	active: 1.84 µM	–
COc1cc(C(=O)C(=O)N2CCN(c3ccccc3)CC2)cc2ccccc12	inconclusive [inhibitor, single point]	–
Cc1ccc(N(C(=O)c2snc(C(N)=O)c2N)C(C(=O)NC2CCCC2)c2ccco2)cc1 (stereo not given)	inconclusive [inhibitor, single point]	–
CC(C)OCCCNC(=O)Cc1ccc(Br)cc1	–	inactive: -1.41%
C[C@@]12C(=O)N(c3ccc(F)cc3)C(=O)N1[C@@H]1c3ccccc3OC[C@@H]1[C@H]2c1ccccc1	inconclusive [inhibitor, single point]	–
COc1ccccc1Cc1c(-c2ccc(C#N)cc2)nc2c(C)cc(Br)cn12	inconclusive [inhibitor, single point]	–
O=C(/C(=N/N=C/c1ccc(O)c(O)c1)c1ccccc1)c1ccccc1	active: 7.31 µM	–
Cn1c2c(c(=O)n(C)c1=O)C(C(F)(F)F)(C(F)(F)F)N=C(c1ccc(Cl)cc1)N2	active: 0.92 µM	–
O=C(NC1CCCCCCC1)c1cc(F)c(F)cc1Cl	–	inconclusive: -35.1% [inhibitor]
COc1ccc2c(c1)C(C)CC(C)(C)N2C(=O)NC1CCCCC1 (stereo not given)	inconclusive [inhibitor, partial curve]	–
O=C(CCCCn1c(=O)c2ccccc2n(Cc2ccc(Cl)cc2)c1=O)NCc1ccco1	inconclusive [inhibitor, single point]	–

Compound	Potency	activity change, negative = growth inhibition
COCCN(Cc1cc2cc3c(cc2n2nnnc12)OCO3)C(=O)c1ccccc1F	inconclusive [inhibitor, single point]	–
NS(=O)(=O)c1cc(C(=O)NCCOc2ccccc2)c(Cl)cc1Cl	inconclusive [inhibitor, single point]	–
COc1ccccc1N1CCN(c2ncc(C(=O)N3CCN(c4cccc(Cl)c4)CC3)c3ccccc23)CC1	active: 2.59 µM	–
CC(/C=C1\SC(=S)N(CC(=O)N2CCN(c3ccccc3)CC2)C1=O)=C\c1ccccc1	active: 20.6 µM	–
CCCCCCC(=O)N(O)C1CC(=O)N(c2ccc(F)cc2)C1=O (stereo not given)	active: 1.64 µM	–
COc1cccc(/C=C(/C(=O)OCC(=O)NC2CCCC(C)C2C)c2ccccc2)c1 (stereo not given)	inconclusive [inhibitor, single point]	–
COc1ccc(NC(=O)c2cc(C3CCCCN3C(=O)OCCF)on2)c(C)c1 (stereo not given)	inconclusive [inhibitor, single point]	–
COc1cc(OC)c(NC(=O)C2CCCN(c3ncnc4c3nc3n4CCCCC3)C2)cc1Cl (stereo not given)	inconclusive [inhibitor, single point]	–
COc1ccc(OC)c(NC(=O)CSc2nnc(CNC(=O)c3ccco3)o2)c1	–	inconclusive: -31.8% [inhibitor]
O=C(C1CCCC1)N1CCN(S(=O)(=O)c2cccc(Cl)c2Cl)CC1	–	inactive: 1.84%
CCCCOc1ccc(C(=O)OCC(=O)Nc2cc(C)c(C)cc2[N+](=O)[O-])cc1	–	inactive: -15.4%
O=C(C[C@H]1C/C=C\CCCCC(=O)OC[C@H]2CCCN2C1=O)N[C@H](CO)Cc1ccccc1	inconclusive [inhibitor, single point]	–
O=C(NNC(=O)c1ccccc1OCc1ccccc1)c1ccccc1F	–	inactive: -1.39%
Cc1cc(C)cc(-n2ncc3c2CCCC3NC(=O)CN2CCCCC2=O)c1 (stereo not given)	–	inactive: -0.672%
CCOC(=O)c1sc(NC(=O)Nc2ccc(Cl)cc2)nc1C	inconclusive [inhibitor, single point]	–
CC(=O)Nc1cccc(NS(=O)(=O)Cc2ccc(Cl)cc2)c1	–	inactive: -1.5%
CCCCNC(=O)C1C(c2ccc(C(F)(F)F)cc2)=Nc2ccccc2N1C(=O)c1cccc2ccccc12 (stereo not given)	inconclusive [inhibitor, single point]	–
O=C(c1cccc(S(=O)(=O)NCc2ccccc2)c1)N1CCCC(C(F)(F)F)C1 (stereo not given)	–	inactive: -25.3%
CCc1ccccc1N=C1S/C(=C/c2ccccc2OCC(=O)N2CCOCC2)C(=O)N1C	inconclusive [inhibitor, single point]	–
Cc1ccc(S(=O)(=O)Nc2ccc3nc(N)sc3c2)cc1	active: 13 µM	–
CN1/C(=C\C=N\O)C(C)(C)c2ccccc21	–	inactive: -28.5%
O=C(c1ccco1)N1CCN(Cc2nc3ccc([N+](=O)[O-])cc3c(=O)n2-c2ccccc2F)CC1	inconclusive [inhibitor, partial curve, poor fit]	–
